# About 5,300 (4.4%) of roughly 120,000 compounds were called active. The inconclusive results got no clear call from the source; some entries with a clear call stand among them for comparison. Calls come from the whole dose curve; as a rule, active = well fitted inhibition curve with a large enough effect; inconclusive = small, poorly fitted or top-dose-only effect; inactive = no such curve, though single readings can be large or run the other way. A potency beside an inconclusive call is a rough fit, not a confirmed value.
# Assay: qHTS Primary assay for Inhibitors of Plasmodium falciparum Dd2 growth in vitro; note: nearly all actives have a fitted effect of over 65% in size;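 for activity, negative = inhibition: plate controls were DMSO vehicle for no effect and reference drug for full effect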
# Conditions: P. falciparum Dd2 growth, SYBR Green, 72 h; activity, negative = inhibition: at 28.9 µM (top of the series) unless noted; series mostly up to 28.9 µM
# Method in brief: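 Infected erythrocytes (Dd2, 0.3% parasitemia, 2.5% hematocrit final) are added to compound in RPMI-1640/Albumax II medium, grown 72 h at 37C in low oxygen, then lysed with saponin/Triton-X containing SYBR Green and read by fluorescence.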
# Potency is the fitted concentration of half-maximal effect; tags give direction and shape of the fitted curve.
SMILES,"activity, negative = inhibition",Potency
COc1cccc(-c2nnc(SCC(=O)NC3CCCCC3)o2)c1,inconclusive: -134% [inhibitor] [at 0.594 µM],
COc1ccccc1-c1ccc2ncc(Nc3ccccc3)n2n1,,active: 7.94 µM
O=C(Nc1ccc2c(N3CCCC3)ncnc2c1)c1ccc(Br)cc1,,"inconclusive: 1.41 µM [inhibitor, full curve, poor fit]"
Cc1nc(-c2ccc(F)cc2)n(CC(=O)Nc2cc(C(F)(F)F)ccc2Cl)c(=O)c1CCO,,active: 11.2 µM
CN(Cc1ccccc1)C(=O)c1ccc(N2CC3CC(C2)[C@H]2CCCC(=O)N2C3)nc1 (stereo partly drawn),,"inconclusive: 12.6 µM [inhibitor, partial curve, poor fit]"
O=C(NC1CC1)c1nc(-c2cccnc2)c2cnccn12,,"inconclusive: 22.4 µM [inhibitor, single point]"
CC(=O)Nc1ccc(C(=O)NC[C@@H]2C=C(C)[C@H](Cc3nnc(-c4ccccc4F)o3)C[C@H]2C(C)C)cc1,,"inconclusive: 1.26 µM [inhibitor, full curve, poor fit]"
O=C(NCCC1=CCCCC1)c1ccc2c(=O)n3nc(Nc4ccccc4)sc3nc2c1,,"inconclusive: 1.12 µM [inhibitor, full curve]"
COc1ccc([C@H]2C[C@@H](O)[C@@H](O)[C@@H]2NC(=O)Nc2ccc(C(F)(F)F)cc2)cc1,,active: 3.16 µM
Cc1noc(-c2ccccc2Cl)c1C(=O)N1CCC(Cc2ccccc2)CC1,,inactive
COc1cccc(NC(=O)C2CCN(c3nnc(C)c4c(C)n(-c5ccccc5)nc34)CC2)c1,,"inconclusive: 10 µM [inhibitor, single point]"
COc1c(F)ccc(C(=O)N2CCC3(CCCNC3)C2)c1F (stereo not drawn),,inactive
CC(C(=O)N1CCCN(c2cc(-c3ccc(Cl)cc3)[nH]n2)CC1)c1ccccc1 (stereo not drawn),,"inconclusive: 0.891 µM [inhibitor, full curve, poor fit]"
CS(=O)(=O)N1CC2(CCN(Cc3ccccn3)C2)Cc2ccccc21 (stereo not drawn),,"inconclusive: 5.62 µM [inhibitor, partial curve]"
COc1ccc(CCNC(=O)c2cnn(-c3ccc(F)cc3)c2C2CCN(C(=O)OC(C)(C)C)CC2)c(OC)c1,,"inconclusive: 2.82 µM [inhibitor, full curve]"
CN(C1CCCc2ccccc21)S(=O)(=O)c1cccc(C(F)(F)F)c1 (stereo not drawn),,"inconclusive: 17.8 µM [inhibitor, single point]"
CCOC(=O)N1CCc2c(sc3c2c(=O)n(Cc2ccccc2)c(=O)n3Cc2ccccc2Cl)C1,,"inconclusive: 1.26 µM [inhibitor, full curve, poor fit]"

SMILES,"activity, negative = inhibition",Potency
CC(=O)Nc1ccc(CNC[C@H]2Cn3cc(-c4ccc(C)cc4)nc3CO2)cc1,,"inconclusive: 12.6 µM [inhibitor, single point]"
CC(C)c1nc2nccc(-c3cc4ccccc4o3)n2n1,,inactive
CCN1c2cc(C(=O)Nc3ccc(C(=O)OC)cc3)ccc2C(=O)N2CCCC21 (stereo not drawn),,"inconclusive: 3.98 µM [inhibitor, single point]"
COc1ccccc1N1CCN(c2ncc3c(n2)CCN(Cc2ccccc2F)C3)CC1,inactive: 41.8% [at 5.79 µM],
CNC(=O)c1cccc(-c2cnc(Nc3cccc(F)c3)c3c2CCO3)c1,,"inconclusive: 10 µM [inhibitor, partial curve, poor fit]"
Cc1ccn(CC(=O)N2CCCC(CCc3ccccc3C)C2)n1 (stereo not drawn),,"inconclusive: 10 µM [inhibitor, single point]"
C#CCN(C)C[C@@H]1C=C(C)[C@H](Cc2nnc(-c3ccccc3F)o2)C[C@H]1C(C)C,,"inconclusive: 1.58 µM [inhibitor, partial curve, poor fit]"
COc1ccc(NC(=O)C(=O)NCC2(c3ccc(OC)c(OC)c3)CCCC2)cc1,,"inconclusive: 10 µM [inhibitor, single point]"
O=c1[nH]c(N2CCOCC2)nc2c1CCN(Cc1ccc(F)cc1)CC2,inactive: 23% [at 5.79 µM],
C=CCOc1cccc(C(=O)N2CC[C@@](O)(C3CCOCC3)[C@H](C)C2)c1,,inactive
COCCN1Cc2nc(OCc3ccc(F)cc3)ccc2OCC1=O,,inactive
CSCC[C@@H]1NC(=O)c2cc(NC(=O)Cn3ccc4ccccc43)ccc2NC1=O,,"inconclusive: 11.2 µM [inhibitor, single point]"
Cc1ccc(NC(=O)c2c(C)oc3ncnc(N4CCCCC4)c23)cc1Cl,,inactive
Cn1cccc1C(=O)N1CC(c2nc(CCOCC3CCCC3)no2)C1,,inactive
CCOCC(=O)N1C[C@@H](Oc2ccccc2)C[C@H]1C(=O)NCCOC,,inactive
C[C@@H]1CN(C(=O)c2ccc(Cn3cccn3)o2)CC[C@]1(C)O,,inactive

# From PubChem BioAssay AID1347417 (National Center for Advancing Translational Sciences (NCATS), 2020)
